Data as given in PubChem BioAssay AID1346428 (National Center for Advancing Translational Sciences (NCATS), 2018).
Several values for one entry are separate records, joined by “and”; a condition that tells them apart may be missing. Equal entries are not always repeated. Out of some 48,000 compounds screened, about 1,200 (2.5%) were called active. Inconclusive results (about 2%) are left out.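 Rule for the calls: active = activation of at least 60% and not above a set upper limit (about 1 call in 100 departs from these limits); inconclusive = activation of 40% to 60%, or above that upper limit; inactive = activation under 40%.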 The list shows a part of the results.

These compounds were tested against Probable G-protein coupled receptor 32 (Homo sapiens) (UniProt O75388) (assay: qHTS for Agonists of Human Resolvin D1 Receptor DRV1). Conditions: CHO-K1 GPR32 beta-arrestin PathHunter luminescence, 90 min; at 76.9 µM; active compounds read high; zero percent set by DMSO-only wells.
UniProt O75388, sequence (O75388 whole entry, looked up): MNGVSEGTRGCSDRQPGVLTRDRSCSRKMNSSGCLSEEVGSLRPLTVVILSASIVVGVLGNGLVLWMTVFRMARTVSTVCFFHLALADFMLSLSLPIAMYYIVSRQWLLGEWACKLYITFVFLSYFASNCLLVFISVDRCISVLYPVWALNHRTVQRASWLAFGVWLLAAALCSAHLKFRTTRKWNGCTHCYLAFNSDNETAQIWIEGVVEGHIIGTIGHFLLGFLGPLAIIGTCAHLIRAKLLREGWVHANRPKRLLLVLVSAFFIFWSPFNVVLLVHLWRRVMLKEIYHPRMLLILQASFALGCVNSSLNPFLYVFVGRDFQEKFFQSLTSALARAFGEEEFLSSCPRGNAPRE
Summary of the method: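 Engineered CHO-K1 line co-expressing GPR32-ProLink and EA-beta-arrestin. Compound treatment lasted 90 min at 37 °C. Luminescence was recorded after 1 h with substrate at ambient temperature, relative to DMSO basal wells.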
Note: 0% is about no effect.

activation, inactive:
COc1ccccc1CCN1COc2c(cc3c(C)c(C)c(=O)oc3c2C)C1 6.99%
CCOC(=O)c1cc(C)n(CC2CCC(C(=O)Nc3cccc(Cl)c3)CC2)c1C (stereo not drawn) -3.01%
CCc1cccc(NC(=O)Cn2c(=O)n(CCC(=O)NCc3ccccc3Cl)c(=O)c3sccc32)c1 44.6%
Oc1c(C(c2ccccc2)N2CCOCC2)sc2nc(-c3ccco3)nn12 (stereo not drawn) -8.59%
CCN(CC)c1ccc(NC(=O)CN2CCN(c3ccccc3OC)CC2)cc1 -31.4%
Cc1cc(C)cc(NC(=O)c2sc3nc4n(c(=O)c3c2C)N=C(c2ccccc2)CS4)c1 -16.4%
Nc1c(C(=O)Nc2cccc(F)c2)nnn1-c1cccc(C(F)(F)F)c1 2.22%
Cc1ccc(Cl)cc1NC(=O)C(Cc1ccccc1)NS(=O)(=O)c1cccc2nsnc12 (stereo not drawn) -23.5%
Cc1ccc(-c2cc3ncc(C(=O)c4cc(Cl)c(C)cc4O)cn3n2)cc1 -7.6%
CCN(C(=O)CSc1ncc2c(n1)-c1cc(Cl)ccc1N(Cc1ccccc1)S2(=O)=O)c1cccc(C)c1 7.23%
CCOc1ccc(Br)cc1C1C(C(=O)OC)=C(C)NC2=C1C(=O)c1ccccc12 (stereo not drawn) -14.5%
COc1ccc(C)cc1NC(=O)c1c2c(nc3ccccc13)C(=O)N(C1CCCCC1)C2 10.4%
Cc1ccc(NS(=O)(=O)c2ccc3c(c2)CC(=O)N3)cc1Cl -20.3%
COc1ccc(OC)c(C2Nc3c(C)cc(C)cc3-c3cc(C)nn32)c1 (stereo not drawn) -16.5%
CCc1c(C)sc2c1CCN(C(=O)Nc1ccccc1C(=O)OC)C2c1ccc(OC)cc1 (stereo not drawn) -7.95%
Cc1ccc(Cl)cc1N1CCN(C(=O)c2cc3ccc4cccnc4c3[nH]2)CC1 -34%
CC(C)c1ccc(C2=CC(c3cccc(Cl)c3)n3c(nc4ccccc43)N2)cc1 (stereo not drawn) 47.1%
CCC(CC)(CC(=O)Nc1cccc(/C=C/c2nc(C3CCC3)cs2)c1)C(=O)O -3.73%
CCn1c(=O)cc(OCC(=O)N(C)c2ccc(OC)cc2)c2ccccc21 19.1%
O=C(NCc1ccc(Cl)cc1)C1=Cc2cc(Br)ccc2OC1 20.1%
CCC(=O)N1CCc2cc(Br)cc(S(=O)(=O)N3CCCC(C(=O)Nc4cc(C)ccc4OC)C3)c21 (stereo not drawn) -0.618%
CCOc1ccc(NC(=O)CN2C(=O)C(c3ccc(Cl)cc3)=NC2(C)C)cc1 4.39%
NC(=O)c1ncn([C@@H]2O[C@H](CO)[C@@H](O)[C@H]2O)n1 0.329% and -0.925%
